From PMC4962086, “A cholesterol-binding domain in STIM1 modulates STIM1-Orai1 physical and functional interactions” (Scientific Reports, 2016)

Target: mCherry-Orai1 (UniProt Q96D31 1-301)
Experiment: cell-based or functional assay

UniProt Q96D31, sequence (Q96D31 whole entry): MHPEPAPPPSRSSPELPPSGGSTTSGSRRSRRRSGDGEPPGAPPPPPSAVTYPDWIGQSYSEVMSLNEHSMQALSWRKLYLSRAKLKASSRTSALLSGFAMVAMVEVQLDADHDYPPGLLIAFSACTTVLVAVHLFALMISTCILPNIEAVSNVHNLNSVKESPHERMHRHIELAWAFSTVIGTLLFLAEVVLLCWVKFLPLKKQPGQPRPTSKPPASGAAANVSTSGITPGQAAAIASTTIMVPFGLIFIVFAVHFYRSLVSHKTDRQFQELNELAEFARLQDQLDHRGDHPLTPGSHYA

cytoplasmic calcium influx on addition of extracellular calcium (area under the curve), cells depleted of cholesterol with MβCD against cells with normal cholesterol: 5 fold
B1: GFP-SOAR (Stim Orai Activating Region of STIM1), wild type (domain or fragment)
chain: not shown
